The source of these data is the supplement of paper PMC8728848.

The other results are listed elsewhere or left out.

Common to all, as to assay: glycan array binding signal (z-score within array); higher = stronger binding
Conditions in all cases: glycan notation: IUPAC condensed, linker removed

The target in test [1] is Gal(b1-4)GlcNAc(b1-2)[Gal(b1-4)GlcNAc(b1-6)]Man(a1-6)[GlcNAc(b1-4)][Gal(b1-4)GlcNAc(b1-2)Man(a1-3)]Man(b1-4)GlcNAc(b1-4)GlcNAc. In a few lines:
(§1)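 The Consortium for Functional Glycomics database supplied 3228 glycan arrays, of which those lacking an available protein sequence were dropped. The binding signal, a within-array Z-score, was averaged across arrays of the same protein sequence and across linkers. Negative scores can be read as non-binding.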

Test [2] addresses Gal(b1-4)GlcNAc(b1-2)[Gal(b1-4)GlcNAc(b1-6)]Man(a1-6)[GlcNAc(b1-4)][Gal(b1-4)GlcNAc(b1-2)[Gal(b1-4)GlcNAc(b1-4)]Man(a1-3)]Man(b1-4)GlcNAc(b1-4)[Fuc(a1-6)]GlcNAc. An outline of the steps:
as §1

For test [3], the target named is Gal(b1-4)GlcNAc(b1-3)Gal(b1-3)GalNAc. An outline of the steps:
as §1

In test [4] the target is Gal(b1-4)GlcNAc(b1-3)Gal(b1-3)GlcNAc. In a few lines: as §1
Test [5] addresses Gal(b1-4)GlcNAc(b1-3)Gal(b1-4)Glc. In a few lines: as §1
Test [6] addresses Gal(b1-4)GlcNAc(b1-3)Gal(b1-4)GlcNAc. An outline of the steps:
as §1

Test [7] concerns the target Gal(b1-4)GlcNAc(b1-3)Gal(b1-4)GlcNAc(b1-2)Man(a1-3)[Gal(b1-4)GlcNAc(b1-3)Gal(b1-4)GlcNAc(b1-2)Man(a1-6)]Man(b1-4)GlcNAc(b1-4)GlcNAc. An outline of the steps:
as §1

Test [8] addresses Gal(b1-4)GlcNAc(b1-3)Gal(b1-4)GlcNAc(b1-2)Man(a1-3)[Gal(b1-4)GlcNAc(b1-3)Gal(b1-4)GlcNAc(b1-2)Man(a1-6)]Man(b1-4)GlcNAc(b1-4)[Fuc(a1-6)]GlcNAc. In a few lines: as §1
Test [9] deals with Gal(b1-4)GlcNAc(b1-3)Gal(b1-4)GlcNAc(b1-2)[Gal(b1-4)GlcNAc(b1-3)Gal(b1-4)GlcNAc(b1-6)]Man(a1-6)[Gal(b1-4)GlcNAc(b1-3)Gal(b1-4)GlcNAc(b1-2)Man(a1-3)]Man(b1-4)GlcNAc(b1-4)GlcNAc. In a few lines:
as §1

Test [10] addresses Gal(b1-4)GlcNAc(b1-3)Gal(b1-4)GlcNAc(b1-2)[Gal(b1-4)GlcNAc(b1-3)Gal(b1-4)GlcNAc(b1-6)]Man(a1-6)[Gal(b1-4)GlcNAc(b1-3)Gal(b1-4)GlcNAc(b1-2)Man(a1-3)]Man(b1-4)GlcNAc(b1-4)[Fuc(a1-6)]GlcNAc. An outline of the steps: as §1
Test [11] concerns the target Gal(b1-4)GlcNAc(b1-3)Gal(b1-4)GlcNAc(b1-3)Gal(b1-4)GlcNAc. In a few lines: as §1
Test [12] has as its target Gal(b1-4)GlcNAc(b1-3)Gal(b1-4)GlcNAc(b1-3)Gal(b1-4)GlcNAc(b1-2)Man(a1-3)[Gal(b1-4)GlcNAc(b1-3)Gal(b1-4)GlcNAc(b1-3)Gal(b1-4)GlcNAc(b1-2)Man(a1-6)]Man(b1-4)GlcNAc(b1-4)GlcNAc. In a few lines: as §1
The target of test [13] is Gal(b1-4)GlcNAc(b1-3)Gal(b1-4)GlcNAc(b1-3)Gal(b1-4)GlcNAc(b1-2)Man(a1-3)[Gal(b1-4)GlcNAc(b1-3)Gal(b1-4)GlcNAc(b1-3)Gal(b1-4)GlcNAc(b1-2)Man(a1-6)]Man(b1-4)GlcNAc(b1-4)[Fuc(a1-6)]GlcNAc. An outline of the steps:
as §1

Test [14] has as its target Gal(b1-4)GlcNAc(b1-3)Gal(b1-4)GlcNAc(b1-3)Gal(b1-4)GlcNAc(b1-2)[Gal(b1-4)GlcNAc(b1-3)Gal(b1-4)GlcNAc(b1-3)Gal(b1-4)GlcNAc(b1-6)]Man(a1-6)[Gal(b1-4)GlcNAc(b1-3)Gal(b1-4)GlcNAc(b1-3)Gal(b1-4)GlcNAc(b1-2)Man(a1-3)]Man(b1-4)GlcNAc(b1-4)[Fuc(a1-6)]GlcNAc. In a few lines:
as §1

Test [15] has as its target Gal(b1-4)GlcNAc(b1-3)Gal(b1-4)GlcNAc(b1-3)Gal(b1-4)GlcNAc(b1-3)Gal(b1-4)GlcNAc(b1-2)Man(a1-3)[Gal(b1-4)GlcNAc(b1-3)Gal(b1-4)GlcNAc(b1-3)Gal(b1-4)GlcNAc(b1-3)Gal(b1-4)GlcNAc(b1-2)Man(a1-6)]Man(b1-4)GlcNAc(b1-4)GlcNAc. An outline of the steps:
as §1

Test [16] concerns the target Gal(b1-4)GlcNAc(b1-3)Gal(b1-4)GlcNAc(b1-3)Gal(b1-4)GlcNAc(b1-3)Gal(b1-4)GlcNAc(b1-2)Man(a1-3)[Gal(b1-4)GlcNAc(b1-3)Gal(b1-4)GlcNAc(b1-3)Gal(b1-4)GlcNAc(b1-3)Gal(b1-4)GlcNAc(b1-2)Man(a1-6)]Man(b1-4)GlcNAc(b1-4)[Fuc(a1-6)]GlcNAc. An outline of the steps:
as §1

Test [17] concerns the target Gal(b1-4)GlcNAc(b1-3)Gal(b1-4)GlcNAc(b1-3)Gal(b1-4)GlcNAc(b1-3)Gal(b1-4)GlcNAc(b1-2)[Gal(b1-4)GlcNAc(b1-3)Gal(b1-4)GlcNAc(b1-3)Gal(b1-4)GlcNAc(b1-3)Gal(b1-4)GlcNAc(b1-6)]Man(a1-6)[Gal(b1-4)GlcNAc(b1-3)Gal(b1-4)GlcNAc(b1-3)Gal(b1-4)GlcNAc(b1-3)Gal(b1-4)GlcNAc(b1-2)Man(a1-3)]Man(b1-4)GlcNAc(b1-4)[Fuc(a1-6)]GlcNAc. An outline of the steps:
as §1

Test [18] addresses Gal(b1-4)GlcNAc(b1-3)Gal(b1-4)GlcNAc(b1-3)Gal(b1-4)GlcNAc(b1-3)Gal(b1-4)GlcNAc(b1-3)Gal(b1-4)GlcNAc(b1-2)Man(a1-3)[Gal(b1-4)GlcNAc(b1-3)Gal(b1-4)GlcNAc(b1-3)Gal(b1-4)GlcNAc(b1-3)Gal(b1-4)GlcNAc(b1-3)Gal(b1-4)GlcNAc(b1-2)Man(a1-6)]Man(b1-4)GlcNAc(b1-4)GlcNAc. An outline of the steps:
as §1

Test [19] has as its target Gal(b1-4)GlcNAc(b1-3)Gal(b1-4)GlcNAc(b1-3)Gal(b1-4)GlcNAc(b1-3)Gal(b1-4)GlcNAc(b1-3)Gal(b1-4)GlcNAc(b1-2)Man(a1-3)[Gal(b1-4)GlcNAc(b1-3)Gal(b1-4)GlcNAc(b1-3)Gal(b1-4)GlcNAc(b1-3)Gal(b1-4)GlcNAc(b1-3)Gal(b1-4)GlcNAc(b1-2)Man(a1-6)]Man(b1-4)GlcNAc(b1-4)[Fuc(a1-6)]GlcNAc. An outline of the steps: as §1
Test [20] has as its target Gal(b1-4)GlcNAc(b1-3)Gal(b1-4)GlcNAc(b1-3)Gal(b1-4)GlcNAc(b1-3)Gal(b1-4)GlcNAc(b1-3)Gal(b1-4)GlcNAc(b1-2)[Gal(b1-4)GlcNAc(b1-3)Gal(b1-4)GlcNAc(b1-3)Gal(b1-4)GlcNAc(b1-3)Gal(b1-4)GlcNAc(b1-3)Gal(b1-4)GlcNAc(b1-6)]Man(a1-6)[Gal(b1-4)GlcNAc(b1-3)Gal(b1-4)GlcNAc(b1-3)Gal(b1-4)GlcNAc(b1-3)Gal(b1-4)GlcNAc(b1-3)Gal(b1-4)GlcNAc(b1-2)Man(a1-3)]Man(b1-4)GlcNAc(b1-4)[Fuc(a1-6)]GlcNAc. An outline of the steps:
as §1

Test [21] deals with Gal(b1-4)GlcNAc(b1-3)Gal(b1-4)GlcNAc(b1-3)Gal(b1-4)GlcNAc(b1-3)Gal(b1-4)GlcNAc(b1-3)Gal(b1-4)GlcNAc(b1-3)Gal(b1-4)GlcNAc(b1-2)Man(a1-3)[Gal(b1-4)GlcNAc(b1-3)Gal(b1-4)GlcNAc(b1-3)Gal(b1-4)GlcNAc(b1-3)Gal(b1-4)GlcNAc(b1-3)Gal(b1-4)GlcNAc(b1-3)Gal(b1-4)GlcNAc(b1-2)Man(a1-6)]Man(b1-4)GlcNAc(b1-4)GlcNAc. In a few lines:
as §1

Test [22] has as its target Gal(b1-4)GlcNAc(b1-3)Gal(b1-4)GlcNAc(b1-3)GalNAc. In a few lines: as §1
Test [23] deals with Gal(b1-4)GlcNAc(b1-3)Gal(b1-4)GlcNAc(b1-3)[Gal(b1-4)GlcNAc(b1-3)Gal(b1-4)GlcNAc(b1-6)]GalNAc. In a few lines: as §1

B1: Epa10 (protein)
chain: MNEKIFRYLTLLFLFELARSLPVEDKLNIKKVFEKRAVDFTPFAHYPRPEGCSSPPNSVSVGLHMNLYNYPYLYVKPSTKGMFTNDTNSDADGETDGDSAGGIEGRAGQCWNPEYQDPNFPRFGYKQYGEFGASDNVNGDISWDHNEFTEGCKPVLAALPPGYNYPDEITFSNFTMVLSGYFKPKTSGVYKFELKADDFILFNFGAKNAFECCNREESIDNFGPYVAYAMWPNQADQELEVYLFEDSYYPLRLFYNNRDYHSKFKIGFYPPGQTTITFDFDGYLFMLDDTGNECRDSIRYRTVCDDKVVDDTTYSTRYSTSMVPGGGSDVITIYYIRMKCEEEDCLGQWDPINNVCYSPDDCADDGGYWNGQMCDQSCKLEGGIVNPDTGDCDKSCIESGGFLDENGNCDTTCRDDGGMLVEGQCDYQCKEAGGILVGDHCDTTCVDSGGKLNEDGTCDHSCRDQGGQLDENGECDTSCKDSGGMLIEGECDTSCKDEGGQLDDNNECINHCKDQGGIIDENGNCDTSCKDSGGKLDESGACDTSCRDDGGIIDENGNCNTTCRDDGGIIVGDHCDTSCRDAGGILIEDHCDTTCRDSGGKLNEDGTCDHSCRDQGGQLDENGKCDYSCKNGGGKLDEDGNCDMSCKENGGKLDENGDCDLSCKEDGGKLDGNGDCDYSCKEEGGVIDESGNCNTTCKDSGGQIIDGECNYGCIEVGGVVIDGECDTSCIDSGGILDGDGNCDRSCIESGGVLEDGACNTTCRDSGGQLNVDGTCDTSCRDDGGMLVEGQCDYQCKEAGGILEDGECVFPPTSSSTSETSSTTDQSSLQSDDSSMESSSTPMDSSTIESSSSEIITSESESESVPIASSSSEVMTSESESESIPILTSSSEIPIASSSSEIPVASSSSEIIIPESESESVPVASSSSEIPIASSSSEIPVASSSSEIPVASSSSEIIIPESESESIPIESTSSEAVSSRSESDSSYPTPTPTTTTITTWPNPIQPTTSNSSPIVSSSTETPGIAESSSRISDLESSRRTSILGDDRTRTRTTITSTITEDGQIITITTTVTGFVPEPTGETEGNGSDDENPENPIENNTDENEFLDPEFTDDIPDDPAGPEDNGNGPVNPEQGNDNDPVNLEDSGNNGAVNPEQAPVNDEDNGGNDPVNPEQDNNNGPANPGQDSTNGSGNSDQIDNNPPTPEENAGDGNSNGNDPADPSRRTSILGDERTRASPGGTSQPTGANGNVNGNSPGANVNGGGTGNSNNNNNNNNNNNNGNAPNGGDGSNGDANQGPSRRTSLLGDERTRAGQAAPTGGSSPDNGIAGDTSNNGGAIVSQQVDDGGAGSPRRTSILGDVRSRTTLNGEVLNFEGSGVRRAVAGNLALPLMMVGLVFNL
On to B1, for which the “glycan array binding signal (z-score)” value is -0.174 in test [1]; 0.014 in test [2]; -0.228 in test [3]; -0.236 in [4]; -0.234 in test [5]; -0.078 in test [6]. In addition, the “glycan array binding signal (z-score)” value in [7] is 0.222; in test [8], 0.185; in test [9], 0.211; in [10], 0.264; in test [11] it was -0.023; in test [12], 0.28. In addition, the “glycan array binding signal (z-score)” value in test [13] was 0.17; in [14], 0.654; in test [15], 0.466; in [16], 0.277; in [17], 0.73; in [18], 0.485. Also, the “glycan array binding signal (z-score)” value is 0.536 in test [19]; 1.31 in test [20]; 0.441 in [21]; -0.021 in test [22]; 0.054 in test [23].
